The RNAGym collection of RNA variant scans (doi:10.7554/elife.90254)
Read counts are not given, so values of variants with three or more changes are uncertain.

B1: OR4K15 (parent)
chain: GUUAACGGUCAUAGGCCAUGGAAACUAGGAGCACCAUUUCGCUGCCAGUGAAGAAAUGAACAAAGAAAAUCUGGGCCAGGCAGGCAUCAAAAGAAAUAGUCUUGCGCUCAACCAGAAAGUCUGUAAUCAUUUUAAGGGUA

Variants of: B1
Assay: self-cleavage, relative activity (ratio to wild type); higher = more cleavage; in vitro, sequencing; the parent is a self-cleaving ribozyme

| Variant | self-cleavage |
| --- | --- |
| GUUAACGGUCAUAGGCCAUGGAAACUUGGAGCACAAUUUCGCUGCCAGUGAAGAAAUGAACAAAGAAAAUCUGGGCCAGGCAGGCAUCAAAAGAAAUAGUCCUGCGCUCAACCAGAAAGUCUGUUAUCAUUUUAAGGGUA | 1.9 |
| GUUAACGGUCAUAGGCCAUGGAAACUUGGAGCACCAUUUCGCAGCCAGUGAAGAAAUGAACAAAGAAAAUCUGGGCCAGGCAGGCAUCAAAAGAAAUAGUCUUGCGCUCAACCAGAAAGUCCGUAAUCAUUUUAAGGGUA | 1 |
| GUUAACGGUCAUAGGCCAUGGAAACUUGGAGCACCAUUUCGCUGCCAGUGAAGAAAUGAACAAAGAAAAUCUGGGCCAGGCAGGCAUCAAAAGAAAUAGUCUUGCGCUCAACCCGAUAGUCUGUAAUCAUUUUAUGGGUA | 0.01 |
| GUUAACGGUCAUAGGCCAUGGAAACUUGGAGCACCAUUUCGCUGCCAGUGAAGAGAUGAGCAAAGAAAAUCUGGGCCAGGCAGGCAUCAAAAGAGAUAGUCUUGCGCACAACCAGAAAGUCUGUAAUCAUUCUAAGGGUA | 0.01 |
| GUUAACGGUCAUAGGCCAUGGAAACUUGGAGCACCAUUUCGCUGCCAGUGGAGAAAUGAACAAAGAAAAUCUGGGCCAGGCAGGCAUCAAGAGAAGUAGUCUUGCGCUCAACCAGAAAGUCUGUAAUCAUUUUAAGGGUA | 0.9 |
| GUUAACGGUCAUAGGCCAUGGAAACUAAGGGCACCAUUUCGCUGCCAGUGAAGAAAUGAACAAAGAAAAUCUGGGCCAGGCAGGCAUCAAAAGAAACAGUCCUGCGCUCAACCAGAAAGUCUGUAAUCAUCUUAAGGGUA | 1.91 |
| GUUAACGGUCAUAGGCCAUGGAAACUAAGAGCACCAUUUCGCUGCCAGUGAAGGUAUGGACAAAGAAAAUCUGGGCCAGGCAGGCAUCAUAAGAGAUAGUCUUGCGCUCAACCAGAAAGUCUGUAAUCAUUUUAAGGGUA | 1.96 |
| GUUAACGGUCAUAGGCCAUGGAAACUUGGAGCACCAUUUCGCUGCCAGUGAAGAAAUGUACAAAGAAAAUCUGGGCCAGGCGGGCAUCAAAAGAAAUAGUCUUGCGCUCAACCAGAAAGUCUGUAAUCAUUUUAAGGGUA | 0.53 |
| GUUAACGGUCAUAGGCCAUGGAAACUUGGAGCACCAUUUCGCUGCCAGUGAAGAAAUGAACAAAGAAAAUCUGGGCCAGGCAGGCAUCAAAAGAAAUAGUCUUGCGCUCAACAAGAAAGUCCGUAAUCAUUUUAAGGGUA | 0.01 |
| GUUAACGGUCAUAGGCCAUGGAAACUUGGAGCACCAUUUCGCUGCCAGUGAAGAAAUGAACGAAGAAAAUCUGGGCCAGGCAGGCAUCUAAAGAAAUAGUCUUGCGCUCAACCAGAAAGUCUGUAAUCAUUCUAAGGGUA | 2.15 |
| GUUAACGGUCAUAGGCCAUGGAAACUUGGAGCGCCAUUUCGCUGCCAGUGAAGGAAAGAACAAAGAAAAUCUGGGCCAGGCAGGCAUCAAAAGAAAUAGUCUUGCGCUCAACCAGAAAGUCUGUAAUCAUUUUAAGGGUA | 1.26 |
| GUUAACGGUCAUAGGCCAUGGAAACUUGGAGCACCAUUUCGCUGCCAGUGAAGAAAUGAACAAAGAAAAUCUGGGCCGGGCAGGCAUCAAAAGAACUAGUCUUGCGCUCAACUAGAAAGUCUGUAAUCAUUUUAAGGGUA | 0.01 |
| GUUAACGGUCAUAGGCCAUGGAAACUGGGAGCACCAUUUCGCUGCCAGUGAAGAAAUGAACAAAGAAAAACUGGGCCAGGCAGGCAUCAAAGGAAAUAGUCUUGCGCUCAACCAGAAAGUCUGUAAUCAUUUUAAGGGUA | 0.66 |
| GUUAACGGUCAUAGGCCAUGGAAACUUGGAGCGCCAUUUCGCUGCCAGUGAAGAAAUGAACAAAGCAAAUCUGGGCCAGGCAGGCUUCAAAAGAAAUAGUCUUGCGCUCAACCUGAAAGUCUGUAAUCAUUUUAAGGGUA | 0.12 |
| GUUAACGGUCAUAGGCCAUGGAAACUUGGAGCACCAUUCCGCUGCCAGUGAAGAAAUGAACAAAGAAAAUCUGGGCCAGGCAGGCAUCAAAAGAAAUAGUCUUGCGCUCAACCAGAAAGUCUGUGAUCAUUUCAAGGGUA | 1.38 |
| GUUAACGGUCAUAGGCCAUGGAAACUUGGAGCGCCAUUUCGCUGCCAGUGAAGAAAUGAACAAAGAAAAUCUGGGCCAGGCAGGCAUCAAAAGAGAUAGUCUUGCGCUCAACCAGAAAGUCUGUAAUCAUUUUAAGGGUA | 1.58 |
| GUUAACGGUCAUAGGCCAUGGAAACUUGGGGCACCAUUUCUCUGCCAGUGAAGAAAUGAACAAAGAAAAUCUGGGCCAGGCAGGCAUCAAAGGAAAUAGUCUUGUGCUCAACCAGAAAGUCUGUAAUCAUUUUAAGGGUA | 0.45 |
| GUUAACGGUCAUAGGCCAUGGAAACUGGGAGCACCAUUUCGCUGCCAGUGAAGAAAUGAACAAAGAAAAUCUGGGCCAGGCAGGCAUCAAAAGAAAUAGCCUUGCGCCCAACCAGAAAGUCUGUAAUCAUUCUAAGGGUA | 0.01 |
| GUUAACGGUCAUAGGCCAUGGAAACUUGGAGCACCAUUUCGCUGCCAGUAAGGAAGUGAACAAAGGAAAUCUGGGCCAGGCAGGCAUCAAAAGAAAUAGUCUUGCGCUAAACCAGAAAGUCUGUAAUCAUUUUAAGGGUA | 0.38 |
| GUUAACGGUCAUAGGCCAUGGAAACUUGGAGCACCAUUUGGCUGCCAGUGAAGGAACGAACAAAGAGAAUCUGGGCCAGGCAGGCAUCAAAAGAAAUAGUCUUGCGCUCAACCAGAAAGUCUGUAAUCAUUUUAAGGGUA | 1.21 |
| GUUAACGGUCAUAGGCCAUGGAAACUAAGAGCACCAUUUCGCUGCCAGUGAAGAAAUGAACAAAGAGAAUCUGGGCCAGGCAGGCAUCAAAAGAAAUAGUCUUGCGCUCAACCAGAAAGUCUGUAAUCGUUUUAAGGGUA | 1.08 |

| Variant | self-cleavage |
| --- | --- |
| GUUAACGGUCAUAGGCCAUGGAAACUUGGAGCUCCAUUCCGCUGCCAGUGAAGAAAUGAACUAAGAAAAUCUGGGCCAGGCAGGCAUCAAAAGAAAUAGUCUCGCGCUCAACCAGAAAGUCUGUAAUCAUUUUAAGGGUA | 0.73 |
| GUUAACGGUCAUAGGCCAUGGAAACUUGGAGCACCAUUUCGCUGCCAGUGAAGAAAUGAACAAAGAAAAUCUGGGCCAGGCAGGCAUCUAAAGAAAUAGUCUUGCGCUCAACCAGAAAGUCUGUAAUCAUUCUAAGGGUA | 1.47 |
| GUUAACGGUCAUAGGCCAUGGAAACUUGGAGCACCAUUCCGCUGCCAGCGAAGAAAUGAACAAAGAAAAUCUGGGCCAGGCAGGCACCAAAAGAAACAGUCUUGCGCUCAACCAGAAAGUCUGUAAUCAUUUUAAGGGUA | 0.4 |
| GUUAACGGUCAUAGGCCAUGGAAACUUGGAGCACCAUUUCGCUGCCAGUGAAGAAAUGAACAAAGAAAAUCUGGGCCAGGCAGGCAUCAAAAGAAGUAGUCUUGCGCUCAACCAGGAAGUCUGUAAUCAUUUUAAGGGUA | 0.53 |
| GUUAACGGUCAUAGGCCAUGGAAACUUGGAGCACCAUUUCGCUGCCAGUGAAGAAAUGAACAAAGUAAAUCCGGGCCAGGCAGGCAUCAAAAGAAAUAGUCUUGCGCUCAACCAGAAAGUCUGUAAUCAUUUUAAGGGUA | 0.35 |
| GUUAACGGUCAUAGGCCAUGGAAACUAAGAGCUCCAUUUCGCUGCCAGUGAAGAAAUGAACAAAGAAAAUCUGGGCCAGGCAGGCAUCAAAAGAAAUAGCCUCGCGCUCAGCCGGAAAGUCUGUAAUCAUUUUAAGGGUG | 0.01 |
| GUUAACGGUCAUAGGCCAUGGAAACUUGGAGCACCAUUUCGCUGCCAGUGAAGAAAUGAACAAAGAAAAUCUGGGCCAGGCAGGCAACAAAAGAAAUAGUCUUGCGCUCAACCAGAAAGUCUGUAGUCAUUUUAAGGGUA | 1.2 |
| GUUAACGGUCAUAGGCCAUGGAAACUUGGAGCACCAUUUCGCUGCCAGUGAAGAAAUGAACAAAGAAAAUCUGGGCCAGGCAGGCAUCAAAAGAGAUAGUCUUGCGCUCAACCAGAGAGUCUGUAAUCAUUUUAAGGGUA | 1.85 |
| GUUAACGGUCAUAGGCCAUGGAAACUUGGAGCACCAUUUCGCUGCCAGUGAAGAAGUGAACAAAGAAAAUCUGGGCCAGGCAGGCAUCAAAAGAAAUAGUCUUGCGCUCAACCAGAGAGUCUGUAAUCAUUUUAAGGGUA | 2.05 |
| GUUAACGGUCAUAGGCCAUGGAAACUUGGAGCACCAUUUCGCUGCCAGUGAAGAAAUGAACAAAGAAAAUCUGGGCCAGGCAGGCAUCAAAAGAAAUAGUCUUGCGCUCAACCAGAAAGUCUGCAAUCAUCUUAAGGGUA | 0.69 |
| GUUAACGGUCAUAGGCCAUGGAAACUAAGAGCACCAUUUCGCUGCCAGUGAAGAAAUGAACAAAGAAAAUCUGGGCCAGGCAGGCGUCAAAAGAAAUAGUCUUGCGCUCAACCAGAAAGUCUGUAACCAUUUUAAGGGUA | 0.86 |
| GUUAACGGUCAUAGGCCAUGGAAACUGGGAGCACCAUUUCGCUGCCAGUGAAGAAAUGAACAAAGAAAAUCAGGGCCAGGCAGGCAUCAAAAGAAAUAGCCUUGCGCUCAACCAGAAAGUCUGUAAUCAUUUUAAGGGUA | 0.55 |
| GUUAACGGUCAUAGGCCAUGGAAACUUGGAGCACCAUUUCGCUGCCAGUGAAGAAAUGAACAAAGGAAAUCUGGGCCAGGCAGGCACCAAAAGAAAUAGUCUUGCGCUCAACCAGAAAGUCUGUAAUCAUUUUAAGGGUA | 1.68 |
| GUUAACGGUCAUAGGCCAUGGAAACUAAGAGCACCAUUUCGCUGCCAGUGAAGAAAUGAACAAAGAAUAUCUGGGCCAGGCAGGCAUCAAGAGAAAUGGUCUUGCGCUCAACCAGAAAGUCUGUAAUCAUUUUAAGGGUA | 0.42 |
| GUUAACGGUCAUAGGCCAUGGAAACUUGGAGCACCAUUUCGCUGCCAGUGAAGAAAUGAACAAAGAAAAUCUGGGCCAGGCAGGCUUCAAAAGAAAUAGUCUUGCGCUCAACCAGAAAGUCUGUAACCAUUUUAAGGGUA | 1.35 |
| GUUAACGGUCAUAGGCCAUGGAAACUGGGAGCACCAUUUCGCUGCCAGUGAAGAAAUGAACAAAGAAAAUCUGGGCCAGGCAGGCACCAAAAGAAAUAGUCUUGCGCUCAACCAGAGAGUCUGUAGACAUUUCAAGGGCA | 0 |
| GUUAACGGUCAUAGGCCAUGGAAACUGGGAGCACCAUUUCGCUGCCAGUGAAGAAAUGAACAAAGAAAAACUGGGCCAGGCAGGCAUCAAAAGAAAUAGUCUUGCGCUCAACCAGAAAGUCUGUAAUCACUUUAAGGGUA | 0.48 |
| GUUAACGGUCAUAGGCCAUGGAAACUUGGAGCACCAUUUCGCUGCCAGUGAAGAAAUGAACAAAGAAAAUCUGGGCCAGGCAGGCCUCAAAAGAAAUAGUCUUGCGCUCAACCAGAAAGUCUGUAAUCAUCUUAAGGGUA | 0.48 |
| GUUAACGGUCAUAGGCCAUGGAAACUGGGAGCACCAUUUCGCUGCCAGUGAAGAAAUGAACAAAGAAAAUCUGGGCCAGGCAGGCAUCAAAAGAAAUAGCCUUGCGCUCAACCAGAAAGUCUGUAAUCAUUUUAUGGGUA | 1.62 |
| GUUAACGGUCAUAGGCCAUGGAAACUGGGAGCACCAUUUCGCUGCCAGUGAAGAAAUGAACAAAGAAAAUCUGGGCCAGGCAGGCAUCAAAAGAAAUAGUCUUGCGCCCGACCAGAAAGUCUGUAAUCAUUUUAAGGGUA | 0.02 |
